PubChem BioAssay AID485344 (National Center for Advancing Translational Sciences (NCATS), 2010)
Among all 340,000 compounds or so, about 6,900 (2%) were called active. No stated cut-off is given here; in the data, active means inhibition above about 30%; inactive means below that, where a call was filed. The entries are a selection whose mix differs from that of the whole data set. The source gives no active or inactive call for entries shown without one. Some structures have more than one record in an assay (separate samples or runs), and their calls can disagree.

molecular target: D(2) dopamine receptor (Homo sapiens) (UniProt P14416); experiment: HTS Assay for Allosteric Antagonists of the Human D2 Dopamine Receptor: Primary Screen for Antagonists; conditions: HEK293 TREx D2 cells, calcium flux, dopamine EC80; at 10 µM; stronger effect = higher value; further: 0% is about no effect
UniProt P14416, sequence (P14416 whole entry, looked up): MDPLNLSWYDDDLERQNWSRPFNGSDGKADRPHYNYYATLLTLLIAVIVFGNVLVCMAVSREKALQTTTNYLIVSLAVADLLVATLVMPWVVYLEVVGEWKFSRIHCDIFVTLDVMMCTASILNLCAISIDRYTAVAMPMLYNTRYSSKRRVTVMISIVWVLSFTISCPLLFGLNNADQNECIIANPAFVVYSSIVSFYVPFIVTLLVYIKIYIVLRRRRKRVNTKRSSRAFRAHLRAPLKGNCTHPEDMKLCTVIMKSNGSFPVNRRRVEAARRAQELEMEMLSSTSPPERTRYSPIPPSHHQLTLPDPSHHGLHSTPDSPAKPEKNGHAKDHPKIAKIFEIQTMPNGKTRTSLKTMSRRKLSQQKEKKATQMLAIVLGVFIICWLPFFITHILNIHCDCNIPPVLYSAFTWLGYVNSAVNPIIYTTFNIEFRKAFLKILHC
Method in brief: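 Calcium flux kinetic readout in an inducible HEK293 TREx D2 line plated overnight at 30 C. After 180 s compound exposure, an EC80 dopamine challenge follows with another 180 s kinetic read to detect antagonism.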

Row | Compound | inhibition
1 | O=C(CCN1CCN(c2ccccc2)CC1)N/N=C/c1ccc(O)c(O)c1O | active: 78.1%
2 | CCOC(=O)c1c(C)oc2nc(C)nc(NCc3ccc(Cl)cc3)c12 | -1.76%
3 | CC(=O)N1CCc2cc(Br)cc(S(=O)(=O)N3CCC(C(=O)N(C)c4cc(C)ccc4C)CC3)c21 | 0.579%
4 | COc1ccc(-c2cc3ccc(O)c(CN4CCOCC4)c3oc2=O)cc1 | 18.5%
5 | COc1cc(NC(=O)c2ccccc2)ccc1NC(=O)c1cc2ccccc2o1 | -25.1%
6 | Cc1cccc(NC(=O)c2nc(S(C)(=O)=O)ncc2Cl)c1 | -9.25%
7 | Cc1cccc(NC(=O)CSc2nc(-c3ccco3)nc3cc(=O)[nH]n23)c1 | -11.3%
8 | CC(C)CN1CCc2nc(N3CCN(C)CC3)ncc2C1 | 21.8%
9 | Cn1c(=O)cc(SCC(=O)N2CCN(c3ccc(F)cc3)CC2)c2ccc(Cl)cc21 | -7.68%
10 | Cc1ccc(Nc2c3c(nc4nncn24)CCC3)cc1C | 20.6%
11 | O=C(CN1C(=O)COc2ccc(S(=O)(=O)N3CCOCC3)cc21)NCc1ccc(F)cc1 | 11.3%
12 | CCOc1cc(S(=O)(=O)n2ccnc2C(C)C)ccc1Cl | 15%
13 | Cn1c(-c2ccc(CN3CCCCC3)o2)nc2ccccc21 | active: 33.8%
14 | O=C(CSc1nc2c(oc3ccccc32)c(=O)n1-c1ccccc1F)Nc1ccccc1 | 18.8%
15 | Cc1ccc(CN2CCSc3ccc(C(=O)N4CCN(c5cc(C)ccc5C)CC4)cc32)cc1 | -1.46%
16 | CCOC(=O)c1c(S(=O)(=O)N2CCCC(C(=O)N3CCN(c4cccc(C)c4C)CC3)C2)c(C)n(C)c1C (stereo not drawn) | 16.4%
17 | O=C(CSc1nnnn1Cc1ccccc1)NCCc1ccccc1 | active: 31.9%
18 | COc1ccccc1N1CCN(C(=O)c2cc3c(=O)n(Cc4ccco4)ccc3nc2C)CC1 | -18.2%
19 | N#Cc1nc(-c2ccc(COc3ccc(Cl)cc3)o2)oc1N1CCN(c2ccccc2)CC1 | 4.34%
20 | CCOc1ccc(NC(=O)CCn2cnc3onc(-c4ccc(F)cc4)c3c2=O)cc1 | -3%
21 | Cc1ccccc1NC(=O)CCn1cnc2onc(-c3ccc(F)cc3)c2c1=O | -0.478%

Row | Compound | inhibition
22 | CCC(C)(C)C1CCc2c(sc(NC(=O)C3c4ccccc4Oc4ccccc43)c2C(N)=O)C1 (stereo not drawn) | 19.3%
23 | O=S(=O)(c1ccccc1)c1nc(-c2cccs2)oc1SCc1ccccc1F | 6.48%
24 | CCCCC(CC)CNC(=O)C1CCN(S(=O)(=O)c2cccc3nsnc23)CC1 (stereo not drawn) | -10.5%
25 | Cc1ccccc1OCC(=O)OCc1cc(=O)n2ccsc2n1 | 5.64%
26 | Cc1ccc2cc3cc(C(=O)Nc4ccc(F)cc4Cl)oc3nc2c1 | -23.7%
27 | CCN(CC)S(=O)(=O)c1ccc2c(c1)N(CC(=O)N1CCN(c3cccc(C(F)(F)F)c3)CC1)C(=O)CO2 | -16.7%
28 | Cc1c(Cl)cccc1-n1ncc(C(=O)Nc2ccc3c(c2)OCCO3)c1C1CCN(C(=O)OC(C)(C)C)CC1 | 5.93%
29 | CCOc1ccc(-c2nc(SC(C(C)=O)C(=O)N(C)C)c3c(=O)n(C)c(=O)n(C)c3n2)cc1 (stereo not drawn) | -9.42%
30 | CCc1ccc(NC(=O)c2ccc3c(c2)nnn3CC)cc1 | 1.35%
31 | COc1ccc(-c2nn(C)c3sc(C(=O)Nc4cccc(F)c4)cc23)cc1OC | -23.2%
32 | Cc1ccc(NC(=O)Cn2c(-c3ccc4c(c3)OCO4)cn(-c3ccccc3)c2=O)cc1C | 0.314%
33 | Cc1ccc(C2Nc3ccccc3-n3c(-c4ccccc4)c4c(=O)n(C)c(=O)n(C)c4c32)o1 (stereo not drawn) | -8.09%
34 | CCC1CN(C(=O)N2CCC(C(=O)NCc3ccc(OC)cc3OC)CC2)c2cc(C)ccc2O1 (stereo not drawn) | -2.2%
35 | Cc1cc(C)cc(NC(=O)c2cc(S(=O)(=O)N3CCCCCC3)cn2C)c1 | 21.2%
36 | COCCn1c(SCC(=O)c2cc(C)ccc2C)nc2cc(C(=O)NC3CCCC3)ccc2c1=O | 6.17%
37 | Nc1ccn([C@H]2CC[C@@H](CO)O2)c(=O)n1 | active: 37.3%
38 | Cc1nn(CC(=O)NC2CC2)c(=O)c2cc3ccccc3n12 | 5.38%
39 | Cn1c(SCc2ccc(F)cc2)nc2ccc(C(=O)NCc3ccc(F)cc3)cc21 | 10.1%
40 | CCN(CC)CCN(C(=O)c1ccco1)c1nc2ccc(Cl)cc2s1 | -10.4%
41 | Cc1ccc(COC(=O)c2cccc(S(=O)(=O)N3CCCCCC3)c2)cc1 | active: 42.9%
42 | O=C(NCCOc1ccccc1F)c1cccc(S(=O)(=O)N2CCN(c3ccccc3)CC2)c1 | active: 35.4%

Row | Compound | inhibition
43 | COc1ccc(Cl)cc1NC(=O)Cn1ccn(Cc2ccc(C)cc2)c(=O)c1=O | 3.58%
44 | O=C(c1cc2c(=O)oc3ccccc3c2s1)N1CCN(c2cccc(Cl)c2)CC1 | -14.6%
45 | COc1ccccc1OCCn1cc(C(=O)c2cccs2)c2ccccc21 | -14%
46 | O=C(Nc1ccccc1)c1cccc2c(=O)c3c([nH]c12)CCCC3 | 7.8%
47 | CCOC(=O)N1CCN(C(=O)CN(c2cccc(Cl)c2C)S(=O)(=O)c2ccc(C)cc2)CC1 | 13%
48 | COc1ccccc1-c1nc(-c2ccc(Br)o2)no1 | 1.6%
49 | Cc1cccc(-n2c(SCC(N)=O)nc3c(oc4ccccc43)c2=O)c1 | -0.638%
50 | CCOc1ccccc1NC(=O)C1CCN(S(=O)(=O)c2c(C)noc2/C=C/c2ccc(C)cc2)CC1 | 1.77%
51 | CN1CCN(CC(O)COc2ccccc2)CC1 (stereo not drawn) | active: 32.5%
52 | COC(=O)c1ccc(Nc2ncnc3c2nc2n3CCCC2)cc1 | 17.8%
53 | CCOc1ccc(C(=O)NCCn2cc(SCC(=O)NCCc3ccc(OC)c(OC)c3)c3ccccc32)cc1 | 7.99%
54 | Cc1ccccc1-c1nc(CNC(=O)Nc2ccccc2)c(C)o1 | -11.7%
55 | Cc1ccccc1OCc1ccc(-c2nc(C#N)c(NCCCN(C)C)o2)o1 | -4.15%
56 | Cc1ccc(C(=O)Nc2ccc(Cl)c(-c3nc4ncccc4o3)c2)c(C)c1 | 8.62%
57 | CC1CCCCN1Cc1c(C#N)c2ccccc2n1C (stereo not drawn) | active: 40.2%
58 | CCOC(=O)C1CCN(C(c2ccccc2OC)c2c(O)cc(C)n(CCOC)c2=O)CC1 (stereo not drawn) | 4.97%
59 | COc1cccc(-c2nc(-c3ccc(-c4ccccc4)nc3OC)no2)c1 | -0.295%
60 | O=C(Nc1ccc(F)cc1)[C@H](Cc1ccccc1)N1Cc2ccccc2C1=O | -0.738%
61 | CC(C)CCOc1ccc(C(=O)Nc2sc3c(c2C#N)CCCCC3)cc1 | 3.32%
62 | Cn1nnnc1SCCCNCc1cccc(OCc2ccc(Cl)cc2)c1 | -25.8%
63 | Cc1c(Cl)ccc2sc(N3CCN(C(=O)c4ccco4)CC3)nc12 | 6.77%
